# Assay results from the BET-seq Pho4 binding data (Le et al. 2018).
# This is one part of the list. Values were computed here from the reads of four pooled replicates and scatter widely.
# Target: T1, Pho4 (S. cerevisiae) (UniProt P07270)
# T1 sequence: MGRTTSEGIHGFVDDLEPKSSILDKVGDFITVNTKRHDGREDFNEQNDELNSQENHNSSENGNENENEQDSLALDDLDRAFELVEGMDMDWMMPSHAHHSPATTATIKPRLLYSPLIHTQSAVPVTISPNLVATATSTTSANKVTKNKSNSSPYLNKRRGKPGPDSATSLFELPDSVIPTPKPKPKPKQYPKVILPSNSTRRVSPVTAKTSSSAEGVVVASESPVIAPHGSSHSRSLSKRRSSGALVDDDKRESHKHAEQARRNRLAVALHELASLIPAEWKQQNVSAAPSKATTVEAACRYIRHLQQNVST
# Assay: relative binding free energy (BET-seq); higher = weaker binding
# Conditions: reference: library average
row,Sequence,relative binding free energy [kcal/mol]
1,TTTGGCACGTGACTTT,0.02
2,TTTCGCACGTGGGAAG,-0.02
3,TGGCACACGTGTGTAG,-0.03
4,TTGAGCACGTGGCTGG,-0.08
5,TTAGTCACGTGTCTGT,-0.02
6,GGTATCACGTGGTGTT,0.17
7,GTATGCACGTGTGAGC,0.12
8,GGCAGCACGTGACGGG,0.07
9,TTGATCACGTGTAGAT,0.24
10,AAAAGCACGTGAGTTT,0.16
11,TTGTACACGTGGTTGC,-0.14
12,GTAGGCACGTGGGGAT,-0.13
13,AGGTCCACGTGATTTG,0.2
14,ATTTTCACGTGCGAAG,0.24
15,TTGACCACGTGACGGG,0.23
16,GTGTACACGTGATCGG,0.23
17,GGGGTCACGTGTCAGA,0.21
18,TGTCACACGTGAAGGT,0.27
19,GAGAGCACGTGGGTAT,-0.18
20,GTATACACGTGCGGTA,0.1
21,TACATCACGTGTAGGA,0.27
22,TGTCACACGTGGTTGG,0.01
23,GTCTGCACGTGTGGTA,0.1

row,Sequence,relative binding free energy [kcal/mol]
1,TATTGCACGTGCTGTG,-0.1
2,ACAGGCACGTGGGGGC,-0.31
3,ACAAGCACGTGGAGGG,-0.15
4,GTCTGCACGTGTAAAT,0.2
5,GTTGGCACGTGGGTTT,-0.15
6,TTGGTCACGTGTAGCC,0.09
7,GTTTTCACGTGTAAAT,0.36
8,TTGATCACGTGAAATT,0.29
9,TGTGCCACGTGGTTAG,-0.15
10,GATGTCACGTGTAGCG,0.2
11,GCGGACACGTGGTTGT,0.09
12,GCATTCACGTGATGGT,0.35
13,CTATGCACGTGGGCGT,-0.22
14,TATAGCACGTGCGAGT,-0.11
15,TGGGGCACGTGGTCTA,-0.13
16,GGGATCACGTGCGTGA,0.02
17,GTTGTCACGTGGGCCG,0.02
18,GTTGGCACGTGGATTG,-0.01
19,GGTTGCACGTGATACG,0.16
20,ATTATCACGTGGACTT,0.24
21,TTTAACACGTGATCTG,0.11
22,ATTTGCACGTGTTCTT,0.03
23,GTTGACACGTGGCGAT,-0.02

row,Sequence,relative binding free energy [kcal/mol]
1,GTGTTCACGTGGGCGT,0.22
2,ATGTTCACGTGAATGT,0.37
3,ACATGCACGTGGGTTT,-0.21
4,TATGTCACGTGACAAT,0.46
5,ATGTTCACGTGGAGCA,0.31
6,GTCTTCACGTGGGGTA,0.15
7,TTTGCCACGTGTTGCG,-0.04
8,GTTTACACGTGCTGGC,0.3
9,TGGGTCACGTGAGGTG,0.36
10,GAACTCACGTGGGATG,0.25
11,CGTCTCACGTGGAGGT,0.17
12,TCATACACGTGTTAGG,0
13,ATGATCACGTGGAAGG,0.19
14,AATTCCACGTGTGTGG,0.07
15,TGAGACACGTGTTGTA,-0.02
16,TAATTCACGTGGAGGC,0.19
17,AAAATCACGTGTTTTG,0.19
18,CGTGGCACGTGGGCTA,-0.24
19,GGGGGCACGTGTGGCG,-0.05
20,TAGAACACGTGAGGTA,0.33
21,TTTGGCACGTGGAGGC,0.06
22,GTTTCCACGTGTAGTG,0.03
23,ATGCTCACGTGTTAAT,0.24

row,Sequence,relative binding free energy [kcal/mol]
1,CGATTCACGTGCGTGT,0.22
2,GCCTTCACGTGGTTGT,0.22
3,GGCTTCACGTGACGTG,0.36
4,GAGGGCACGTGTGGAT,-0.05
5,GTTGACACGTGATGTC,0.32
6,AGCGACACGTGGTGTT,-0.16
7,TTATGCACGTGGTACG,-0.06
8,ATGGGCACGTGTAGCG,-0.11
9,TGCATCACGTGGGGTC,0.03
10,AGAGTCACGTGTTATA,-0.01
11,ATAGTCACGTGAGGTA,0.19
12,AAGGGCACGTGAGTAA,0.16
13,TTGTGCACGTGCAATG,-0.03
14,GCGTGCACGTGGGATG,-0.23
15,TGTTCCACGTGATGGT,0.2
16,GGTCGCACGTGCGTGA,-0.03
17,GGGTTCACGTGTGTTA,0.36
18,CGGTGCACGTGAGAAG,0.19
19,GGCCGCACGTGGGTGT,-0.24
20,GCTTTCACGTGGAAGG,0.31
21,CTAATCACGTGAGTTT,0.22
22,TATGTCACGTGCTAGT,-0.01
23,CGTGCCACGTGTGGTG,-0.17

row,Sequence,relative binding free energy [kcal/mol]
1,AGGAGCACGTGGTAGT,-0.13
2,ATGGTCACGTGGTTGG,0.11
3,CTGGGCACGTGGCGTA,-0.32
4,GGTCTCACGTGTTGTT,0.28
5,TTGGTCACGTGCGCAT,-0.03
6,ATAAGCACGTGATTTT,0.1
7,GGAGTCACGTGAGTGC,0.37
8,CGTGTCACGTGTCGAT,0.09
9,GTGTTCACGTGTCAAT,0.39
10,AGGACCACGTGTTGGT,-0.11
11,AGATTCACGTGTAATT,0.33
12,TGTATCACGTGGATGG,0.17
13,AGCGTCACGTGTTGCT,0.14
14,AGGGTCACGTGCGGCA,0.01
15,TTTTCCACGTGTGCAA,0.26
16,GGCGTCACGTGTGGGA,0.2
17,TGTTTCACGTGTGTAC,0.18
18,TGTTCCACGTGATGAG,0.18
19,AAGGTCACGTGGAAGT,0.05
20,TTCGCCACGTGTGTGT,-0.1
21,AAAGGCACGTGTAAGG,-0.09
22,TGAGGCACGTGTTAGC,-0.06
23,TAAAGCACGTGTGGTG,-0.12
